The values that follow come from publication PMC9911399, “Two distinct binding modes provide the RNA-binding protein RbFox with extraordinary sequence specificity”.

B1: AAACUAU (DNA:RNA)
RNA: GGGAGACCGGAAUUCAGAUUGUCCAAACUAUUUAAAUCCCGUCGUAGCCACCA
DNA 1: CAATCTGAATTCCGGTCTCCC
DNA 2: TGGTGGCTACGACGGGATT
B2: UAACCUC (DNA:RNA)
RNA: B1 RNA with A25U, U29C, A30U, U31C
DNA 1: CAATCTGAATTCCGGTCTCCC
DNA 2: TGGTGGCTACGACGGGATT
B3: GAUCUUA (DNA:RNA)
RNA: B1 RNA with A25G, A27U, A30U, U31A
DNA 1: CAATCTGAATTCCGGTCTCCC
DNA 2: TGGTGGCTACGACGGGATT
B4: GCGAUAU (DNA:RNA)
RNA: B1 RNA with A25G, A26C, A27G, C28A
DNA 1: CAATCTGAATTCCGGTCTCCC
DNA 2: TGGTGGCTACGACGGGATT
B5: AUGAAUU (DNA:RNA)
RNA: B1 RNA with A26U, A27G, C28A, U29A, A30U
DNA 1: CAATCTGAATTCCGGTCTCCC
DNA 2: TGGTGGCTACGACGGGATT
B6: CCGUAAC (DNA:RNA)
RNA: B1 RNA with A25C, A26C, A27G, C28U, U29A, U31C
DNA 1: CAATCTGAATTCCGGTCTCCC
DNA 2: TGGTGGCTACGACGGGATT
B7: CAGUGUG (DNA:RNA)
RNA: B1 RNA with A25C, A27G, C28U, U29G, A30U, U31G
DNA 1: CAATCTGAATTCCGGTCTCCC
DNA 2: TGGTGGCTACGACGGGATT
B8: UCUAGGC (DNA:RNA)
RNA: GGGAGACCGGAAUUCAGAUUGUCCUCUAGGCUUAAAUCCCGUCGUAGCCACCA
DNA 1: CAATCTGAATTCCGGTCTCCC
DNA 2: TGGTGGCTACGACGGGATT
B9: CACCGAA (DNA:RNA)
RNA: B1 RNA with A25C, A27C, U29G, U31A
DNA 1: CAATCTGAATTCCGGTCTCCC
DNA 2: TGGTGGCTACGACGGGATT
B10: UUGAGUA (DNA:RNA)
RNA: B8 RNA with C26U, U27G, G30U, C31A
DNA 1: CAATCTGAATTCCGGTCTCCC
DNA 2: TGGTGGCTACGACGGGATT
B11: GACCGCU (DNA:RNA)
RNA: B1 RNA with A25G, A27C, U29G, A30C
DNA 1: CAATCTGAATTCCGGTCTCCC
DNA 2: TGGTGGCTACGACGGGATT
B12: ACCCUGU (DNA:RNA)
RNA: B1 RNA with A26C, A27C, A30G
DNA 1: CAATCTGAATTCCGGTCTCCC
DNA 2: TGGTGGCTACGACGGGATT
B13: CAGCGUA (DNA:RNA)
RNA: B1 RNA with A25C, A27G, U29G, A30U, U31A
DNA 1: CAATCTGAATTCCGGTCTCCC
DNA 2: TGGTGGCTACGACGGGATT
B14: GGCUACG (DNA:RNA)
RNA: GGGAGACCGGAAUUCAGAUUGUCCGGCUACGUUAAAUCCCGUCGUAGCCACCA
DNA 1: CAATCTGAATTCCGGTCTCCC
DNA 2: TGGTGGCTACGACGGGATT
B15: GGUACGC (DNA:RNA)
RNA: B8 RNA with U25G, C26G, G29C
DNA 1: CAATCTGAATTCCGGTCTCCC
DNA 2: TGGTGGCTACGACGGGATT
B16: CACGUGU (DNA:RNA)
RNA: B1 RNA with A25C, A27C, C28G, A30G
DNA 1: CAATCTGAATTCCGGTCTCCC
DNA 2: TGGTGGCTACGACGGGATT
B17: GCUACCU (DNA:RNA)
RNA: B8 RNA with U25G, G29C, G30C, C31U
DNA 1: CAATCTGAATTCCGGTCTCCC
DNA 2: TGGTGGCTACGACGGGATT
B18: GGCAAGA (DNA:RNA)
RNA: B14 RNA with U28A, C30G, G31A
DNA 1: CAATCTGAATTCCGGTCTCCC
DNA 2: TGGTGGCTACGACGGGATT
B19: GGCCGCC (DNA:RNA)
RNA: B14 RNA with U28C, A29G, G31C
DNA 1: CAATCTGAATTCCGGTCTCCC
DNA 2: TGGTGGCTACGACGGGATT
B20: UCAACCG (DNA:RNA)
RNA: B8 RNA with U27A, G29C, G30C, C31G
DNA 1: CAATCTGAATTCCGGTCTCCC
DNA 2: TGGTGGCTACGACGGGATT
B21: GUUCGGC (DNA:RNA)
RNA: B8 RNA with U25G, C26U, A28C
DNA 1: CAATCTGAATTCCGGTCTCCC
DNA 2: TGGTGGCTACGACGGGATT
B22: GUAUGGG (DNA:RNA)
RNA: B14 RNA with G26U, C27A, A29G, C30G
DNA 1: CAATCTGAATTCCGGTCTCCC
DNA 2: TGGTGGCTACGACGGGATT
B23: UUUGCAA (DNA:RNA)
RNA: B8 RNA with C26U, A28G, G29C, G30A, C31A
DNA 1: CAATCTGAATTCCGGTCTCCC
DNA 2: TGGTGGCTACGACGGGATT
B24: UUGGAUA (DNA:RNA)
RNA: B14 RNA with G25U, G26U, C27G, U28G, C30U, G31A
DNA 1: CAATCTGAATTCCGGTCTCCC
DNA 2: TGGTGGCTACGACGGGATT
B25: UCUCUGU (DNA:RNA)
RNA: B8 RNA with A28C, G29U, C31U
DNA 1: CAATCTGAATTCCGGTCTCCC
DNA 2: TGGTGGCTACGACGGGATT
B26: CAAGCAG (DNA:RNA)
RNA: B1 RNA with A25C, C28G, U29C, U31G
DNA 1: CAATCTGAATTCCGGTCTCCC
DNA 2: TGGTGGCTACGACGGGATT
B27: AGGAUGA (DNA:RNA)
RNA: B1 RNA with A26G, A27G, C28A, A30G, U31A
DNA 1: CAATCTGAATTCCGGTCTCCC
DNA 2: TGGTGGCTACGACGGGATT
B28: AAACGGA (DNA:RNA)
RNA: B1 RNA with U29G, A30G, U31A
DNA 1: CAATCTGAATTCCGGTCTCCC
DNA 2: TGGTGGCTACGACGGGATT
B29: ACGCCGC (DNA:RNA)
RNA: B8 RNA with U25A, U27G, A28C, G29C
DNA 1: CAATCTGAATTCCGGTCTCCC
DNA 2: TGGTGGCTACGACGGGATT
B30: UCCCUUC (DNA:RNA)
RNA: B8 RNA with U27C, A28C, G29U, G30U
DNA 1: CAATCTGAATTCCGGTCTCCC
DNA 2: TGGTGGCTACGACGGGATT
B31: GGGAUAG (DNA:RNA)
RNA: B14 RNA with C27G, U28A, A29U, C30A
DNA 1: CAATCTGAATTCCGGTCTCCC
DNA 2: TGGTGGCTACGACGGGATT

Numbering of substitutions follows the chain as printed; changes in the protein carry UniProt numbers. The list shows a part of the results.

The assay deals with T1, RBFOX1 RRM RbFoxmut (Fox-RRM*) (Homo sapiens, UniProt Q9NWB1 109-208, R118D;E147R;N151S;E152T).
T1 sequence: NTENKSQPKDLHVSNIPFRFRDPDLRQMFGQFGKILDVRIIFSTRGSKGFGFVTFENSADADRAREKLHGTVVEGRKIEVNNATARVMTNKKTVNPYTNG
The assay is described as follows: EMSA; HiTS-Eq, 1 nM pool, 10 min; buffer printed only for the single-RNA assays: 10 mM Tris pH 7.5, 150 mM NaCl, 3.4 mM EDTA, 0.001% NP-40, 30 C. Conditions: tags: His6 N-terminal (pET28a); label: 5' 32P. In outline:
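Purified RbFox RRM, wild type or mutant, was incubated for 10 min in 50 µL with 1 nM of a 5′-radiolabelled RNA pool carrying 7 randomized nucleotides, whose flanks were annealed to DNA oligonucleotides, over a series of increasing protein concentrations. Unbound RNA was resolved on 8% native PAGE, cut out, reverse-transcribed, barcoded by PCR and sequenced on an Illumina HiSeq 2500. Relative association constants were derived from changes in read counts for each RNA species versus the control reaction and normalised to the cognate motif.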
(In general: Mobility shift assays separate free from complexed probe on a gel.)
B1: the binding signal is 0.0741 KA relative to UGCAUGU. With B2, the binding signal is 0.0733 KA relative to UGCAUGU. Consider B3, for which the binding signal was 0.0946 KA relative to UGCAUGU. The figure for B4 is 0.11 KA relative to UGCAUGU; for B5 it is 0.126 KA relative to UGCAUGU; for B6 it is 0.0767 KA relative to UGCAUGU. As for B7, the figure is 0.208 KA relative to UGCAUGU; as for B8, 0.125 KA relative to UGCAUGU; as for B9, 0.0925 KA relative to UGCAUGU. As for B10, the figure is 0.179 KA relative to UGCAUGU; as for B11, 0.0966 KA relative to UGCAUGU; as for B12, 0.12 KA relative to UGCAUGU. As for B13, the binding signal was 0.167 KA relative to UGCAUGU.

Turning to B14, the binding signal was 0.184 KA relative to UGCAUGU. For the molecule B15, the binding signal is 0.113 KA relative to UGCAUGU. Take B16: the binding signal was 0.147 KA relative to UGCAUGU. As for B17, the figure is 0.0731 KA relative to UGCAUGU; as for B18, 0.0528 KA relative to UGCAUGU; as for B19, 0.0551 KA relative to UGCAUGU.

For B20, the binding signal was 0.0927 KA relative to UGCAUGU. As to B21, the binding signal is 0.121 KA relative to UGCAUGU.

For B22, the binding signal was 0.118 KA relative to UGCAUGU. For the molecule B23, the binding signal was 0.0855 KA relative to UGCAUGU. Consider B24, for which the binding signal was 0.0952 KA relative to UGCAUGU. B25: the binding signal is 0.0824 KA relative to UGCAUGU. For the molecule B26, the binding signal is 0.0856 KA relative to UGCAUGU.

For the molecule B27, the binding signal was 0.176 KA relative to UGCAUGU. As to B28, the binding signal is 0.0605 KA relative to UGCAUGU. On to B29, for which the binding signal is 0.14 KA relative to UGCAUGU. As to B30, the binding signal was 0.0903 KA relative to UGCAUGU. As for B31, the figure is 0.157 KA relative to UGCAUGU.
